Data published in the supplement of paper PMC9135407.
Values joined by “and” are separate entries in the source; they are usually repeats but may differ in a detail not shown here. Identical values can stand only once. Counter-ions that a name gives are not always drawn. The campaign covered roughly 5,800 compounds. About 620 (11%) showed activity.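 Rule for the calls: active = score above a cut-off or among the top three wells of a plate; in these data no inactive exceeds 0.85.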 The entries are a selection whose mix differs from that of the whole data set.

Tested on: primary human hepatic stellate cells (donor 1)
Test: scaled lipid accumulation score (0 = DMSO-like, 1 = nortriptyline-like); higher = stronger HSC inactivation (lipid re-accumulation), active = hit call of the paper
Settings: 48 h
Procedure: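 Primary lipid accumulation screen in primary human hepatic stellate cell myofibroblasts (donor 1, passage 8) in 384-well plates. 100 nL of library compound was pin-transferred into 30 µL medium in duplicate, and cells were treated for 48 h. The 'Scaled' score combines distance from plate baseline, toxicity and reproducibility penalties, and is normalised to nortriptyline (positive) and DMSO (negative) controls on each plate. A hit is defined as scaled >0.85 or among the top 3 wells per plate.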

[1] = library stock concentration: 3.33 mM
[2] = library stock concentration: 10 mM
[3] = library stock concentration: 1 mM
[4] = library stock concentration: 80 uM
[5] = library stock concentration: 400 uM
[6] = library stock concentration: 2 mM

## N#C/C(=C\c1ccc(O)c(O)c1)C(=O)NCc1ccccc1
[1]
  scaled lipid accumulation score: inactive: ≤ 0
[2]
  scaled lipid accumulation score: inactive: 0.001
Library stock concentration: 17 mM
  scaled lipid accumulation score: inactive: ≤ -0.021

## C[C@@H]1CN(CCCn2c3ccccc3c3ccccc32)C[C@H](C)N1.Cl.Cl [Rimcazole dihydrochloride]
[2]
  scaled lipid accumulation score: active: 1.34

## CC1(C)[C@@H](OC(=O)CCC(=O)O)CC[C@]2(C)[C@H]3C(=O)C=C4[C@@H]5C[C@@](C)(C(=O)O)CC[C@]5(C)CC[C@@]4(C)[C@]3(C)CC[C@@H]12 [Carbenoxolone sodium]
[2]
  scaled lipid accumulation score: inactive: ≤ 0

## CC1(C)[C@@H](OC(=O)CCC(=O)O)CC[C@]2(C)[C@H]3C(=O)C=C4[C@@H]5C[C@@](C)(C(=O)O)CC[C@]5(C)CC[C@@]4(C)[C@]3(C)CC[C@@H]12 [Carbenoxolone disodium salt]
  scaled lipid accumulation score: inactive: ≤ 0

## O=S(c1ccccc1)c1ccc2nnnn2n1 (stereo unspecified)
[2]
  scaled lipid accumulation score: active: 1.3

## C=CCOC(Cn1ccnc1)c1ccc(Cl)cc1Cl (stereo unspecified) [Enilconazole]
  scaled lipid accumulation score: inactive: ≤ 0
Library stock concentration: 6.7 mM
  scaled lipid accumulation score: inactive: ≤ 0

## CC(C)CCC[C@@H](C)[C@H]1CC[C@H]2[C@@H]3CC(=O)[C@@]4(O)C[C@@H](O)CC[C@]4(C)[C@H]3CC[C@]12C [5.alpha.-hydroxy-6-keto Cholesterol]
[3]
  scaled lipid accumulation score: inactive: ≤ 0

## O=C(/C=C/c1ccc(O)c(O)c1)O[C@@H]1C[C@](O)(C(=O)O)C[C@@H](O)[C@H]1O [Chlorogenic acid]
  scaled lipid accumulation score: inactive: ≤ 0
[2]
  scaled lipid accumulation score: inactive: ≤ 0

## O=C(/C=C/c1ccc(O)c(O)c1)O[C@@H]1C[C@](O)(C(=O)O)C[C@@H](O)[C@H]1O [Chlorogenic Acid]
[3]
  scaled lipid accumulation score: inactive: ≤ 0
[1]
  scaled lipid accumulation score: inactive: ≤ 0
[2]
  scaled lipid accumulation score: inactive: ≤ 0

## O=C(/C=C/c1c(C(=O)O)[nH]c2cc(Cl)cc(Cl)c12)Nc1ccccc1 [Gavestinel]
[2]
  scaled lipid accumulation score: inactive: ≤ -0.001

## N#CC(C#N)=C(N)/C(C#N)=C/c1cc(O)c(O)c(O)c1 [Tyrphostin 51]
[2]
  scaled lipid accumulation score: inactive: ≤ 0

## Nc1ncnc2nc(-c3ccc(N4CCOCC4)nc3)cc(-c3cccc(Br)c3)c12
[2]
  scaled lipid accumulation score: active: 0.982

## CCCCN(CC)c1nc(C)nc2c1c(C)cn2-c1c(C)cc(C)cc1C
[2]
  scaled lipid accumulation score: inactive: 0.047

## Clc1cccc2c1CN(C1=NCCN1)C2
[2]
  scaled lipid accumulation score: inactive: ≤ 0

## N#Cc1c(NC(=O)c2cccc3ccccc23)sc2c1CCCC2 [JNK Inhibitor IX]
[1]
  scaled lipid accumulation score: inactive: 0.132 and inactive: 0.098
[2]
  scaled lipid accumulation score: inactive: 0.305

## C=CC(=O)Nc1cccc(Nc2nc(Nc3ccc(OCCOC)cc3)ncc2F)c1
[1]
  scaled lipid accumulation score: inactive: ≤ -0.009
[2]
  scaled lipid accumulation score: inactive: 0.576

## C=CC(=O)Nc1cccc(Nc2nc(Nc3ccc(OCCOC)cc3)ncc2F)c1 [Spebrutinib]
[4]
  scaled lipid accumulation score: inactive: ≤ -0.001
[5]
  scaled lipid accumulation score: inactive: ≤ -0.001
[6]
  scaled lipid accumulation score: inactive: ≤ -0.001
[2]
  scaled lipid accumulation score: inactive: 0.202

## O=C(O)CP(=O)(O)O [Phosphonoacetic acid]
[2]
  scaled lipid accumulation score: inactive: ≤ 0

## NC1CCN(c2nc3c(cc2F)c(=O)c(C(=O)O)cn3-c2ccc(F)cc2F)C1 (stereo unspecified)
[2]
  scaled lipid accumulation score: inactive: 0.275

## NC1CCN(c2nc3c(cc2F)c(=O)c(C(=O)O)cn3-c2ccc(F)cc2F)C1 (stereo unspecified) [Tosufloxacin]
Library stock concentration: 4.9 mM
  scaled lipid accumulation score: inactive: ≤ 0

## COC(=O)Nc1nc2cc([S+]([O-])c3ccccc3)ccc2[nH]1 (stereo unspecified) [Oxfendazole]
[1]
  scaled lipid accumulation score: inactive: ≤ 0
Library stock concentration: 6.3 mM
  scaled lipid accumulation score: inactive: 0.02 and inactive: ≤ 0
[2]
  scaled lipid accumulation score: inactive: ≤ 0 and inactive: ≤ -0.027

## C[C@@H]1C(=O)NC2=Nc3cccc(Cl)c3CN21 [Quazinone]
[2]
  scaled lipid accumulation score: inactive: ≤ 0

## CCCCC[C@@H](O)/C=C/[C@H]1C(=O)C[C@H](O)[C@@H]1CCCCCCCO [Prostaglandin D1 Alcohol]
[3]
  scaled lipid accumulation score: inactive: ≤ 0

## O=C1NCCCc2c1oc1ccc(O)cc21
[4]
  scaled lipid accumulation score: inactive: ≤ -0.001
[5]
  scaled lipid accumulation score: inactive: ≤ -0.001
[6]
  scaled lipid accumulation score: inactive: ≤ -0.001
[2]
  scaled lipid accumulation score: inactive: ≤ -0.001

## CCCCCCCCCCCCC/C=C/[C@@H](O)[C@@H](N)CO [Sphingosine]
[3]
  scaled lipid accumulation score: inactive: ≤ -0.021

## COc1ccccc1OCC(O)COC(N)=O (stereo unspecified) [Methocarbamol]
  scaled lipid accumulation score: inactive: ≤ 0
[1]
  scaled lipid accumulation score: inactive: ≤ 0
Library stock concentration: 8.3 mM
  scaled lipid accumulation score: inactive: ≤ -0.001
[2]
  scaled lipid accumulation score: inactive: ≤ 0

## Cc1cc(N)c2ccccc2[n+]1CCCCCCCCCC[n+]1c(C)cc(N)c2ccccc21 [Dequalinium chloride hydrate]
[2]
  scaled lipid accumulation score: inactive: ≤ -0.07

## Cc1cc(N)c2ccccc2[n+]1CCCCCCCCCC[n+]1c(C)cc(N)c2ccccc21 [Dequalinium dichloride]
  scaled lipid accumulation score: inactive: 0.249

## Cc1cc(N)c2ccccc2[n+]1CCCCCCCCCC[n+]1c(C)cc(N)c2ccccc21 [Dequalinium chloride]
[2]
  scaled lipid accumulation score: inactive: 0.037

## CCc1c(Cl)c(O)c(Cl)c(O)c1C(=O)O[C@H]1[C@H](O)[C@H](OC)[C@H](OC/C2=C\C=C\C[C@H](O)/C(C)=C/[C@H](CC)[C@@H](O[C@@H]3OC(C)(C)[C@@H](OC(=O)C(C)C)[C@H](O)[C@@H]3O)/C(C)=C/C(C)=C/C[C@@H]([C@@H](C)O)OC2=O)O[C@@H]1C [Fidaxomicin]
[1]
  scaled lipid accumulation score: inactive: ≤ 0
[2]
  scaled lipid accumulation score: inactive: 0.125

## Nc1ccn([C@@H]2CS[C@H](CO)O2)c(=O)n1 [Lamivudine]
[1]
  scaled lipid accumulation score: inactive: 0.011
[2]
  scaled lipid accumulation score: inactive: ≤ 0

## Nc1ccn([C@@H]2CS[C@H](CO)O2)c(=O)n1
Library stock concentration: 9.9 mM
  scaled lipid accumulation score: inactive: ≤ 0
[2]
  scaled lipid accumulation score: inactive: ≤ 0

## CN1Cc2c(N)cccc2C(c2ccccc2)C1 (stereo unspecified) [Nomifensine maleate]
  scaled lipid accumulation score: inactive: 0.598
[2]
  scaled lipid accumulation score: inactive: 0.285 and inactive: ≤ -0.027

## CN(C)C/C=C/C(=O)Nc1cc2c(Nc3ccc(F)c(Cl)c3)ncnc2cc1O[C@H]1CCOC1 [Afatinib  (TOVOK,  BIBW-2992) (10 mM)]
[2]
  scaled lipid accumulation score: inactive: 0.256

## CN(C)C/C=C/C(=O)Nc1cc2c(Nc3ccc(F)c(Cl)c3)ncnc2cc1O[C@H]1CCOC1 [Afatinib (BIBW2992)]
[2]
  scaled lipid accumulation score: inactive: 0.323

## CN(C)C/C=C/C(=O)Nc1cc2c(Nc3ccc(F)c(Cl)c3)ncnc2cc1O[C@H]1CCOC1
[4]
  scaled lipid accumulation score: inactive: 0.425
[5]
  scaled lipid accumulation score: inactive: 0.614
[2]
  scaled lipid accumulation score: inactive: 0.544

## CN(C)C/C=C/C(=O)Nc1cc2c(Nc3ccc(F)c(Cl)c3)ncnc2cc1O[C@H]1CCOC1 [Afatinib  (TOVOK,  BIBW-2992) (0.4 mM)]
[5]
  scaled lipid accumulation score: inactive: 0.318

## OC[C@@H](O)[C@@H](O)[C@@H](O)CO [Ribitol]
[1]
  scaled lipid accumulation score: inactive: 0.07
[2]
  scaled lipid accumulation score: inactive: 0.013

## O=C(Nc1ccccc1)Nc1ccc(-c2ccc(C(=O)[C@@H]3CCC[C@H]3C(=O)O)cc2)cc1
[1]
  scaled lipid accumulation score: inactive: ≤ 0
[2]
  scaled lipid accumulation score: inactive: ≤ 0

## O=C1C(c2ccccc2)N(c2ccc(Br)cc2)C(=O)N1c1ccc(Br)cc1 (stereo unspecified)
[3]
  scaled lipid accumulation score: inactive: ≤ 0

## FC(F)(F)COCC(F)(F)F [Flurothyl]
Library stock concentration: 11 mM
  scaled lipid accumulation score: inactive: ≤ -0.001

## CCN[C@@H]1C[C@H](N)[C@@H](O[C@H]2OC(CN)=CC[C@H]2N)[C@H](O)[C@H]1O[C@H]1OC[C@](C)(O)[C@H](NC)[C@H]1O [Netilmicin sulfate]
Library stock concentration: 3 mM
  scaled lipid accumulation score: inactive: ≤ 0

## O=C1NC(=O)C(c2ccccc2)(c2ccccc2)N1 [5,5-Diphenylhydantoin]
[2]
  scaled lipid accumulation score: inactive: ≤ -0.07

## O=C1NC(=O)C(c2ccccc2)(c2ccccc2)N1 [Phenytoin]
[1]
  scaled lipid accumulation score: inactive: ≤ 0
Library stock concentration: 7.9 mM
  scaled lipid accumulation score: inactive: ≤ -0.006
[2]
  scaled lipid accumulation score: inactive: ≤ 0

## O=C1NC(=O)C(c2ccccc2)(c2ccccc2)N1 [Dilantin]
[2]
  scaled lipid accumulation score: inactive: ≤ 0

## CC(C)(O)c1ccccc1CC[C@@H](SCC1(CC(=O)O)CC1)c1cccc(/C=C/c2ccc3ccc(Cl)cc3n2)c1
Library stock concentration: 9.6 mM
  scaled lipid accumulation score: inactive: ≤ 0
[2]
  scaled lipid accumulation score: inactive: 0.182

## CC(C)(O)c1ccccc1CC[C@@H](SCC1(CC(=O)O)CC1)c1cccc(/C=C/c2ccc3ccc(Cl)cc3n2)c1 [Montelukast (sodium salt)]
[3]
  scaled lipid accumulation score: inactive: ≤ 0

## CC(C)(O)c1ccccc1CC[C@@H](SCC1(CC(=O)O)CC1)c1cccc(/C=C/c2ccc3ccc(Cl)cc3n2)c1 [Montelukast Sodium]
[1]
  scaled lipid accumulation score: inactive: ≤ 0
[2]
  scaled lipid accumulation score: inactive: ≤ -0.001

## O=C1NC(=O)C(=Cc2ccc(-c3ccc(F)cc3)o2)S1 (stereo in doubt)
[1]
  scaled lipid accumulation score: inactive: 0.028
[2]
  scaled lipid accumulation score: inactive: ≤ 0

## NS(=O)(=O)c1ccc(-n2nc(C(F)(F)F)cc2-c2ccc(Cl)cc2)cc1
[2]
  scaled lipid accumulation score: inactive: ≤ -0.055

## COc1cccc(C(=O)NCCN2CCN(c3ccc(Cl)cc3)CC2)c1
[2]
  scaled lipid accumulation score: inactive: 0.314

## CC(C)Oc1ccc(C(=O)N[C@H](CNC(=O)CN(C)C)Cc2ccc(-c3cn4cccc([C@H](C)O)c4n3)cc2)cc1Cl
[2]
  scaled lipid accumulation score: active: 0.882

## c1ccc(CNc2ncnc3nc[nH]c23)cc1 [Aminopurine, 6-benzyl]
  scaled lipid accumulation score: inactive: ≤ 0

## CCCCC[C@@H](O)/C=C/[C@H]1[C@H](O)CC(=O)[C@@H]1C/C=C\CCCC(=O)O [15(R)-Prostaglandin E2]
[3]
  scaled lipid accumulation score: inactive: ≤ 0

## COc1ccc2c(c1)c(CC(=O)Nc1cccnc1)c(C)n2C(=O)c1ccc(Cl)cc1 [N-(3-pyridyl)-Indomethacin amide]
[3]
  scaled lipid accumulation score: inactive: 0.198

## CC(=O)Oc1cccc(C)c1 [meta-CRESYL ACETATE]
[2]
  scaled lipid accumulation score: inactive: ≤ 0

## CCCCCCCCCCCCCCCC(=O)NC[C@@H](C)O [R-Palmitoyl-(2-methyl) Ethanolamide]
[3]
  scaled lipid accumulation score: inactive: ≤ 0

## COc1ccc(S(=O)(=O)N(CCO)c2ccccc2CN(C)C/C=C/c2ccc(Cl)cc2)cc1 [KN-93 Phosphate]
[1]
  scaled lipid accumulation score: inactive: 0.441

## N#CCCc1ccc2c(c1)-c1[nH]c3ccc([N+](=O)[O-])cc3c1CC(=O)N2 [Alsterpaullone, 2-Cyanoethyl]
[1]
  scaled lipid accumulation score: inactive: 0.08
